Assay results taken from patent US4006251A, “Bactericidal and fungicidal composition containing thiocarbanyl sulfenamides” (The B. F. Goodrich Company, priority 1973, dated 1977).

Tests used:
Bacillus subtilis = experiment: Agar Screening Test and/or Penicillin Button Assay Test, (b); settings: ppm by weight based upon the weight of the agar
Salmonella typhosa = experiment: Agar Screening Test and/or Penicillin Button Assay Test, (d); settings: ppm by weight based upon the weight of the agar
Staphylococcus aureus = experiment: Agar Screening Test and/or Penicillin Button Assay Test, (c); settings: ppm by weight based upon the weight of the agar
Asperigillus niger = experiment: Agar Screening Test and/or Penicillin Button Assay Test, (a); settings: a fungus, ppm by weight based upon the weight of the agar

SMILES | lowest concentration that prevents growth or sporulation of the organism (Bacillus subtilis) | lowest concentration that prevents growth or sporulation of the organism (Salmonella typhosa) | lowest concentration that prevents growth or sporulation of the organism (Staphylococcus aureus) | lowest concentration that prevents growth or sporulation of the organism (Asperigillus niger)
CCCCN(CCCC)C(=S)SN(C1CCCCC1)C1CCCCC1 [C, N,N-dibutylthiocarbamyl-N',N'-dicyclohexylsulfenamide] | > 10000 ppm | > 10000 ppm | > 10000 ppm | > 1000 ppm
CN(C)C(=S)SN(C1CCCCC1)C1CCCCC1 [Compound A, N,N-dimethylthiocarbamyl-N',N'-dicyclohexylsulfenamide] | 10 ppm | 50 ppm | 20 ppm | 300 ppm
CCN(CC)C(=S)SN(C1CCCCC1)C1CCCCC1 [Compound B, N,N-diethylthiocarbamyl-N',N'-dicyclohexylsulfenamide] | 50 ppm | 100 ppm | 20 ppm | > 1000 ppm
S=C(SN1CCOCC1)N1CCOCC1 [Compound G, N-oxydiethylenethiocarbamyl-N'-oxydiethylenesulfenamide] | 50 ppm | 100 ppm | 50 ppm | 1000 ppm
CN(C)C(=S)SNc1ccccc1 [Compound H, N,N-dimethylthiocarbamyl-N'-phenylsulfenamide] | 20 ppm | 50 ppm | 50 ppm | 300 ppm
CCCCCCCCCCCCCCCCCCCCN(CCCCCCCCCCCCCCCCCCCC)C(=S)SN(C1CCCCC1)C1CCCCC1 [D, N,N-dieicosylthiocarbamyl-N',N'-dicyclohexylsulfenamide] | > 10,000 ppm | > 10,000 ppm | > 10,000 ppm | > 1000 ppm
S=C(SN(C1CCCCC1)C1CCCCC1)N1CCOCC1 [E, N-oxydiethylenethiocarbamyl-N',N'-dicyclohexylsulfenamide] | 10,000 ppm | > 10,000 ppm | 10,000 ppm | > 1000 ppm
S=C(SN(C1CCCCC1)C1CCCCC1)N1CCCCCC1 [F, N-hexamethylenethiocarbamyl-N',N'-dicyclohexylsulfenamide] | > 10,000 ppm | > 10,000 ppm | > 10,000 ppm | > 1000 ppm
CCN(CC)C(=S)SNc1ccccc1 [I, N,N-diethylthiocarbamyl-N'-phenylsulfenamide] | 10,000 ppm | 10,000 ppm | 1000 ppm | > 1000 ppm
